Consider 54 compounds from article PMC4336329 (PLoS ONE, 2015).

Among all 310,000 compounds or so, about 2,200 (0.71%) showed an effect of 50% or more. The effect is printed as a negative number. The list shows a part of the results.

In this assay the target is human ether-à-go-go-related gene (hERG) potassium channel (human, UniProt Q12809). The assay can be described thus: primary screen, population patch clamp on CHO cells stably expressing hERG.
Chain of human ether-à-go-go-related gene (hERG) potassium channel (Q12809 whole entry, looked up): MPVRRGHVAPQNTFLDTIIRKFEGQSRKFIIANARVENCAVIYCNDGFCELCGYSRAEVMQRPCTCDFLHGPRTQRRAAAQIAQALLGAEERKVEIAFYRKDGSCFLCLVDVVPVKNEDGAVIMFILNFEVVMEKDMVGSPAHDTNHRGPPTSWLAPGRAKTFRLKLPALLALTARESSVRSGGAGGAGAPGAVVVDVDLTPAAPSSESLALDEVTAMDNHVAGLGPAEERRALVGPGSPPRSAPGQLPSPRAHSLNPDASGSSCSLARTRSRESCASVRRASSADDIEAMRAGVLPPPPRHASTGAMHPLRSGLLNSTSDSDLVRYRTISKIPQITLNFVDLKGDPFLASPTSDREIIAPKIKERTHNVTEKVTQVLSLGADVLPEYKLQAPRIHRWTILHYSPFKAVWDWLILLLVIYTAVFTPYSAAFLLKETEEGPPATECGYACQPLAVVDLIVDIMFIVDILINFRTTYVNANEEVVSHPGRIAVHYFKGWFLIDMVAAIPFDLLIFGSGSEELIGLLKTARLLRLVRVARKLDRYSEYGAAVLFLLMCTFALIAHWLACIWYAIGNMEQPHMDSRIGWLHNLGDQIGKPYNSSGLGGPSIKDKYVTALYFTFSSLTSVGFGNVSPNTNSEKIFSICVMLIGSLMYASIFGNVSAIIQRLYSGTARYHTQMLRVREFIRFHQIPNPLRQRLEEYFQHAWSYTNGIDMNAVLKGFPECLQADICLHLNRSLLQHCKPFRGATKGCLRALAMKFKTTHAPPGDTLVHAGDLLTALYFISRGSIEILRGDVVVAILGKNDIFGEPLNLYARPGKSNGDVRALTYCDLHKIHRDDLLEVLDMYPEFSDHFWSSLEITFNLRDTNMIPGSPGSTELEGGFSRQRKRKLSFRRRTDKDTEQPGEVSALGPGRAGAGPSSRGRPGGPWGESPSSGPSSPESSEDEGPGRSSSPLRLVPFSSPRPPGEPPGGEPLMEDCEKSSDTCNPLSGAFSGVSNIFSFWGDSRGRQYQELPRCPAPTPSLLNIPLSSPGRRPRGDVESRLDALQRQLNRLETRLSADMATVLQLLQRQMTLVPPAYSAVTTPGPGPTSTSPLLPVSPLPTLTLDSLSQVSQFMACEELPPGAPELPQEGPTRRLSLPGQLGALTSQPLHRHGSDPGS
In the case of `CCc1cccc2c(C(=O)COC(=O)/C=C/c3ccccc3OC)c[nH]c12`, the “hERG current change (%, negative = inhibition) at 1uM” value was -6.37%.

Consider `COc1ccccc1NC(=O)C1=C(C)NC2=C(C(=O)CCC2)C1c1ccc2c(c1)OCO2` (stereo not drawn), for which the “hERG current change (%, negative = inhibition) at 1uM” value worked out at 7.68%.

`COc1ccc(NC(=S)Nc2cccnc2)c(OC)c1`: the “hERG current change (%, negative = inhibition) at 1uM” value was 12.3%.

With `Cc1cc(NC(=O)Nc2c[nH]c(=O)[nH]c2=O)ccc1Br`, the “hERG current change (%, negative = inhibition) at 1uM” value came out at 10.6%.

With `O=C(COC(=O)c1sc2ccccc2c1Cl)Nc1ncc(Cl)cc1Cl`, the “hERG current change (%, negative = inhibition) at 1uM” value was -4.17%.

Turning to `CC1CCN(S(=O)(=O)c2ccc3c(c2)C(=NO)c2cc(S(=O)(=O)N4CCC(C)CC4)ccc2-3)CC1`, the “hERG current change (%, negative = inhibition) at 1uM” value is recorded as 12.7%.

Regarding `COc1ccccc1NC(=O)CSc1nnc(-c2ccccn2)o1`, the “hERG current change (%, negative = inhibition) at 1uM” value is 12.9%.

For `CC(CCc1ccccc1)NC(=O)COc1ccc(S(=O)(=O)N2CCOCC2)cc1[N+](=O)[O-]` (stereo not drawn), the “hERG current change (%, negative = inhibition) at 1uM” value is 11.6%.

Regarding `c1cnc2c(OCc3cn4cccnc4n3)cccc2c1`, the “hERG current change (%, negative = inhibition) at 1uM” value is recorded as 14.4%.

As to `O=C(NCCCn1ccnc1)C(=O)NCC(c1cccnc1)N1CCN(c2ccc(F)cc2)CC1` (stereo not drawn), the “hERG current change (%, negative = inhibition) at 1uM” value is given as 8.4%.

With `O=[N+]([O-])c1cc(Br)c(Nc2ccccc2)c([N+](=O)[O-])c1`, the “hERG current change (%, negative = inhibition) at 1uM” value stood at 5.87%.

Regarding `Cc1cc(OCC(=O)NCc2ccncc2)c2c(C)c(C)c(=O)oc2c1`, the “hERG current change (%, negative = inhibition) at 1uM” value is reported as -7.2%.

Take `CCN1CCN(S(=O)(=O)c2ccc(Cl)c(C(=O)N(C)Cc3cccs3)c2)CC1`: the “hERG current change (%, negative = inhibition) at 1uM” value is 7.19%.

As to `CC(=O)Nc1ccc(S(=O)(=O)N2C(=O)c3cccc4cccc2c34)cc1`, the “hERG current change (%, negative = inhibition) at 1uM” value was 1.58%.

`CCCCc1nc(C(N)=O)c2[nH]c(=O)n(-c3ccc(OCC)cc3)c2n1`: the “hERG current change (%, negative = inhibition) at 1uM” value is 2.29%.

As for `Cc1nc(Nc2ccccc2C(F)(F)F)sc1C(=O)N(C)C`, the “hERG current change (%, negative = inhibition) at 1uM” value is reported as 4.52%.

On to `CCOc1ccc(N=Nc2c(=O)[nH]n3c(=O)cc(C)[nH]c23)cc1`, for which the “hERG current change (%, negative = inhibition) at 1uM” value is listed as -2.15%.

Turning to `CC(=O)N1CCN(C(=O)c2ccc(OC3CCN(Cc4ccccn4)CC3)cc2)CC1`, the “hERG current change (%, negative = inhibition) at 1uM” value is 16%.

For the compound `CCC(CC)C(=O)NCCCN1CCOCC1`, the “hERG current change (%, negative = inhibition) at 1uM” value was determined as 18.9%.

In the case of `CC(OC(=O)C1CCN(S(=O)(=O)c2ccc(C(C)(C)C)cc2)CC1)C(=O)N1CCOCC1` (stereo not drawn), the “hERG current change (%, negative = inhibition) at 1uM” value was -0.109%.

On to `C[N+]12CCCCC1[C@@H](CO)CCC2.[Br-]` (stereo partly drawn), for which the “hERG current change (%, negative = inhibition) at 1uM” value was determined as 8%.

In the case of `Cc1ccc(C2=NNC(=O)C(P(=O)(c3ccccc3)c3ccccc3)C2)cc1` (stereo not drawn), the “hERG current change (%, negative = inhibition) at 1uM” value is 4.78%.

For the compound `CC1(C)O[C@@H]2[C@H](O1)[C@@H](COS(=O)(=O)[O-])O[C@H]2n1c(=S)[nH]c2c(=O)[nH]c(N)nc21.[K+]`, the “hERG current change (%, negative = inhibition) at 1uM” value is listed as 12.6%.

Turning to `CCCc1cc2c(cc1NC(=O)c1ccccc1C)OCO2`, the “hERG current change (%, negative = inhibition) at 1uM” value is on record as 11.2%.

Consider `O=C(CSc1nc2cc(C(=O)O)ccc2c(=O)n1-c1ccc(F)cc1)Nc1ccc(F)c(F)c1F`, for which the “hERG current change (%, negative = inhibition) at 1uM” value came to 1.53%.

`CC1CC1C(=O)N1CCN(S(=O)(=O)c2cc(C(F)(F)F)cc(C(F)(F)F)c2)CC1` (stereo not drawn): the “hERG current change (%, negative = inhibition) at 1uM” value is reported as -1.95%.

Regarding `COc1ccc(/C(C)=N/OCC(=O)N2CC3(C)CC2CC(C)(C)C3)cc1` (stereo not drawn), the “hERG current change (%, negative = inhibition) at 1uM” value is on record as 7.28%.

For `Cc1nnc(SCC(=O)c2c(N)n(C3CC3)c(=O)[nH]c2=O)n1-c1ccccc1`, the “hERG current change (%, negative = inhibition) at 1uM” value came to 4.54%.

For the compound `C/C(=N/NC(=O)CNC(=O)c1ccccc1F)c1ccc2c(c1)CCCC2`, the “hERG current change (%, negative = inhibition) at 1uM” value is reported as -3.08%.

On to `O=S(=O)(c1ccc(SCc2ccc(Br)cc2)nc1)N1CCOCC1`, for which the “hERG current change (%, negative = inhibition) at 1uM” value turned out to be 7.97%.

In the case of `CCOc1ccc(S(=O)(=O)NCC2CCCO2)c2cccnc12` (stereo not drawn), the “hERG current change (%, negative = inhibition) at 1uM” value is on record as 10.4%.

As to `Cc1ccc(CNC(=O)CCC(=O)N2CC(C)Oc3ccccc32)cc1` (stereo not drawn), the “hERG current change (%, negative = inhibition) at 1uM” value is 2.44%.

For the compound `O=C(CS(=O)(=O)Cc1ccccc1)Nc1nc2ccccc2s1`, the “hERG current change (%, negative = inhibition) at 1uM” value was 0.335%.

On to `Cc1sc2ncnc(N3CCC(C(=O)Nc4sc5c(c4C(N)=O)CCC(C)C5)CC3)c2c1C` (stereo not drawn), for which the “hERG current change (%, negative = inhibition) at 1uM” value is 5%.

As for `CN(CC(=O)Nc1cccc(F)c1)CC(=O)N(C)CC(=O)Nc1ccccc1Br`, the “hERG current change (%, negative = inhibition) at 1uM” value is given as -0.525%.

Consider `O=C(NC12CC3CC(CC(C3)C1)C2)N1CCC(n2nnc3ccccc32)CC1`, for which the “hERG current change (%, negative = inhibition) at 1uM” value was 14.8%.

For the compound `CCN1C(=NCCOC)N[C@@H](CCc2ccccc2)[C@H](C(=O)OC)[C@H]1C`, the “hERG current change (%, negative = inhibition) at 1uM” value was 0.82%.

For `CC(=O)NC1=NN(C(C)=O)C(c2ccc(C(C)C)cc2)S1` (stereo not drawn), the “hERG current change (%, negative = inhibition) at 1uM” value is 9.16%.

For `CCOC(=O)c1[nH]c(C)c(C(=O)NC(C)(C)C)c1C`, the “hERG current change (%, negative = inhibition) at 1uM” value is 1.95%.

For `O=C1NC(=O)C2(Cc3c(nc4ccccn4c3=O)N3CCCCCC32)C(=O)N1Cc1ccccc1` (stereo not drawn), the “hERG current change (%, negative = inhibition) at 1uM” value amounted to 1.89%.

Consider `CCCCc1cc(=O)oc2c(CN(C)C)c(O)ccc12`, for which the “hERG current change (%, negative = inhibition) at 1uM” value is -13%.

As to `COC(=O)c1ccc(/C=C/c2ccc3cccc(OC(C)=O)c3n2)cc1`, the “hERG current change (%, negative = inhibition) at 1uM” value amounted to 8.89%.

With `Cc1ccc(-c2csc(NC(=O)c3cccc(S(=O)(=O)N4CCN(C)CC4)c3)n2)cc1`, the “hERG current change (%, negative = inhibition) at 1uM” value was 2.74%.

For `O=C(CSc1ccc(-c2ccccc2)nn1)c1ccccc1`, the “hERG current change (%, negative = inhibition) at 1uM” value is recorded as 1.6%.

Consider `O=C(Cn1nnc(-c2ccc(CN3CCOCC3)cc2)n1)Nc1nc(-c2ccccc2)cs1`, for which the “hERG current change (%, negative = inhibition) at 1uM” value is -7.77%.

`CC(C)(C)C(=O)NNc1nc(-c2ccccc2)c2cc(Br)ccc2n1`: the “hERG current change (%, negative = inhibition) at 1uM” value was 7.18%.

For the compound `CCOC(=O)C(Cc1c[nH]c2ccccc12)NC(=O)c1ccccc1Br` (stereo not drawn), the “hERG current change (%, negative = inhibition) at 1uM” value was determined as 8.17%.

Turning to `CCCn1c(N)c(N(CCOC)C(=O)c2ccccc2)c(=O)[nH]c1=O`, the “hERG current change (%, negative = inhibition) at 1uM” value is given as 7.61%.

Consider `Nc1cc2c(cc1[N+](=O)[O-])OCCOCCOCCO2`, for which the “hERG current change (%, negative = inhibition) at 1uM” value is on record as 8.23%.

As to `CC(=O)c1cccc(NC(=O)Cn2cnc(S(=O)(=O)N3CCc4ccccc43)c2)c1`, the “hERG current change (%, negative = inhibition) at 1uM” value stood at 14.1%.

With `Cc1ccccc1Nc1nc(N)nc(CN2C(=O)NC3(CCCCC3C)C2=O)n1` (stereo not drawn), the “hERG current change (%, negative = inhibition) at 1uM” value is -8.48%.

`CC1CN(Cc2ccc(C#N)cc2Cl)CC(C)O1.Cl` (stereo not drawn): the “hERG current change (%, negative = inhibition) at 1uM” value was determined as 6.09%.

For `O=C(Nc1ccc(Cl)c(Cl)c1)Nc1ccccc1C(=O)O`, the “hERG current change (%, negative = inhibition) at 1uM” value turned out to be 7.58%.

As for `OCCOCCn1c(C(CO)Nc2nc(-c3ccccc3Br)cs2)nc2ccccc21` (stereo not drawn), the “hERG current change (%, negative = inhibition) at 1uM” value is reported as -9.6%.
